# The supplement of paper PMC12217912
# The other results are listed elsewhere or left out. Sequences were assembled here from the parent chain. Inactive controls read about 0.05.
# B1: TEV protease; numbered along this chain (parent)
# chain: MGESLFKGPRDYNPISSSICHLTNESDGHTTSLYGIGFGPFIITNKHLFRRNNGTLVVQSLHGVFKVKDTTTLQQHLVDGRDMIIIRMPKDFPPFPQKLKFREPQREERICLVTTNFQTKSMSSMVSDTSCTFPSGDGIFWKHWIQTKDGQCGSPLVSTRDGFIVGIHSASNFTNTNNYFTSVPKNFMELLTNQEAQQWVSGWRLNADSVLWGGHKVFMVKPEEPFQPVKEATQL
# Variants of: B1
# Assay: raw area under fraction-flipped curve 0-4 h after induction (AUC4h, not background-subtracted), DNA-recorder readout of cleavage of the substrate (dimensionless); higher = more cleavage of the substrate by the protease variant
# Conditions: temperature: 34 °C; time window: 0-4 h after rhamnose induction
# 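Further: Bxb1 expression induced with 0.2% (w/v) L-rhamnose at OD600 near 0.5, cultures sampled hourly, flipped fraction per protease–substrate barcode pair counted by paired-end Illumina sequencing.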
Variant,area with substrate ENAYFQS,area with substrate ENDYFQS,area with substrate ENEYFQS,area with substrate ENFYFQS,area with substrate ENGYFQS,area with substrate ENHYFQS,area with substrate ENIYFQS,area with substrate ENNYFQS,area with substrate ENPYFQS,area with substrate ENQYFQS,area with substrate ENRYFQS,area with substrate ENSYFQS,area with substrate ENTYFQS,area with substrate ENVYFQS,area with substrate ENWYFQS,area with substrate ENCYFQS,area with substrate ENMYFQS,area with substrate ENKYFQS,area with substrate ENYYFQS
MGESLFKGPRDYNPISSSICHLTNESDGHTTSLYGIGFGPFIITNKHLFRRNNGTLVVQSLHGVFKVKDTTTLQQHLVDGRDMIIIRMPKDFPPFPQKLKFREPQREERICLVTTNFQTKSMSSMVSDTSCTFPSGDGIFWKHWIQTKDGQCGSPLVSTRDGFIVGIHSASNFTNTNNYFTSVPKNFMELLTNQEAQQWVSGWRLNADSVLWGGHKVFIVKPEEPFQPVKEATQL [M219I],0.063,0.069,0.0592,0.0664,0.0638,0.0601,0.0905,0.0489,0.0523,0.0651,0.0463,0.017,0.0633,0.0651,0.0586,–,–,–,–
MGESLFKGPRDYNPISSSICHLTNESDGHTTSLYGIGFGPFIITNKHLFRRNNGTLVVQSLHGVFKVKDTTTLQQHLVDGRDMIIIRMPKDFPPFPQKLKFREPQREERICLVTTNFQTKSMSSMVSDTSCTFPSGDGIFWKHWIQTKDGQCGSPLVSTRDGFIVGIHSASNFTNTNNYFTSVPKNFMELLTNQEAQQWVSGWRLNADSVLWGGHKVFMCKPEEPFQPVKEATQL [V220C],0.0613,0.055,0.0626,0.0679,–,0.0275,0.0942,–,0.0737,0.0529,0.0603,0.0544,0.0354,0.0779,0.0455,0.0824,0.0809,–,–
MGESLFKGPRDYNPISSSICHLTNESDGHTTSLYGIGFGPFIITNKHLFRRNNGTLVVQSLHGVFKVKDTTTLQQHLVDGRDMIIIRMPKDFPPFPQKLKFREPQREERICLVTTNFQTKSMSSMVSDTSCTFPSGDGIFWKHWIQTKDGQCGSPLVSTRDGFIVGIHSASNFTNTNNYFTSVPKNFMELLTNQEAQQWVSGWRLNADSVLWGGHKVFMDKPEEPFQPVKEATQL [V220D],0.0673,–,0.058,0.0588,0.0641,0.0556,–,0.0509,0.072,0.064,–,0.056,–,0.0842,–,0.0627,–,0.0493,–
MGESLFKGPRDYNPISSSICHLTNESDGHTTSLYGIGFGPFIITNKHLFRRNNGTLVVQSLHGVFKVKDTTTLQQHLVDGRDMIIIRMPKDFPPFPQKLKFREPQREERICLVTTNFQTKSMSSMVSDTSCTFPSGDGIFWKHWIQTKDGQCGSPLVSTRDGFIVGIHSASNFTNTNNYFTSVPKNFMELLTNQEAQQWVSGWRLNADSVLWGGHKVFMNKPEEPFQPVKEATQL [V220N],0.0547,0.0582,0.0764,–,–,0.0565,–,–,–,0.0505,–,0.128,0.0903,0.0762,0.0115,0.045,–,0.111,–
MGESLFKGPRDYNPISSSICHLTNESDGHTTSLYGIGFGPFIITNKHLFRRNNGTLVVQSLHGVFKVKDTTTLQQHLVDGRDMIIIRMPKDFPPFPQKLKFREPQREERICLVTTNFQTKSMSSMVSDTSCTFPSGDGIFWKHWIQTKDGQCGSPLVSTRDGFIVGIHSASNFTNTNNYFTSVPKNFMELLTNQEAQQWVSGWRLNADSVLWGGHKVFMVKEEEPFQPVKEATQL [P222E],0.0657,0.0547,0.0889,–,0.0686,0.0535,–,0.0588,–,0.0479,0.0495,0.0614,0.0501,0.0638,–,–,–,–,0.0245
MGESLFKGPRDYNPISSSICHLTNESDGHTTSLYGIGFGPFIITNKHLFRRNNGTLVVQSLHGVFKVKDTTTLQQHLVDGRDMIIIRMPKDFPPFPQKLKFREPQREERICLVTTNFQTKSMSSMVSDTSCTFPSGDGIFWKHWIQTKDGQCGSPLVSTRDGFIVGIHSASNFTNTNNYFTSVPKNFMELLTNQEAQQWVSGWRLNADSVLWGGHKVFMVKPHEPFQPVKEATQL [E223H],0.0459,0.0581,0.0576,0.0582,0.0585,–,0.0828,0.0721,–,0.0571,0.0541,0.0803,0.0569,–,0.0883,0.0764,0.0601,–,0.0604
MGESLFKGPRDYNPISSSICHLTNESDGHTTSLYGIGFGPFIITNKHLFRRNNGTLVVQSLHGVFKVKDTTTLQQHLVDGRDMIIIRMPKDFPPFPQKLKFREPQREERICLVTTNFQTKSMSSMVSDTSCTFPSGDGIFWKHWIQTKDGQCGSPLVSTRDGFIVGIHSASNFTNTNNYFTSVPKNFMELLTNQEAQQWVSGWRLNADSVLWGGHKVFMVKPMEPFQPVKEATQL [E223M],0.048,–,0.0641,0.0607,–,–,0.0913,0.0583,0.0618,0.0584,0.0517,0.0524,0.0715,0.0706,–,0.0852,–,0.062,–
MGESLFKGPRDYNPISSSICHLTNESDGHTTSLYGIGFGPFIITNKHLFRRNNGTLVVQSLHGVFKVKDTTTLQQHLVDGRDMIIIRMPKDFPPFPQKLKFREPQREERICLVTTNFQTKSMSSMVSDTSCTFPSGDGIFWKHWIQTKDGQCGSPLVSTRDGFIVGIHSASNFTNTNNYFTSVPKNFMELLTNQEAQQWVSGWRLNADSVLWGGHKVFMVKPEEAFQPVKEATQL [P225A],0.0692,0.0714,0.055,0.0599,–,–,–,0.071,0.0643,0.059,–,0.0535,0.0602,0.0804,0.0093,–,–,0.0574,0.0512
MGESLFKGPRDYNPISSSICHLTNESDGHTTSLYGIGFGPFIITNKHLFRRNNGTLVVQSLHGVFKVKDTTTLQQHLVDGRDMIIIRMPKDFPPFPQKLKFREPQREERICLVTTNFQTKSMSSMVSDTSCTFPSGDGIFWKHWIQTKDGQCGSPLVSTRDGFIVGIHSASNFTNTNNYFTSVPKNFMELLTNQEAQQWVSGWRLNADSVLWGGHKVFMVKPEEDFQPVKEATQL [P225D],0.0485,0.0605,0.0435,0.0667,–,0.0589,0.119,–,–,0.0549,0.0599,0.116,–,0.0773,–,0.0637,0.0657,–,0.0566
